# Measured values as given in PubChem BioAssay AID686979 (National Center for Advancing Translational Sciences (NCATS), 2013).
# About 50,000 (12%) of roughly 420,000 compounds were called active. The shares of active, inactive and inconclusive entries below differ from those in the screen. Calls follow the shape of the dose curve; as a rule, active = well fitted inhibition curve with a large enough effect; inconclusive = small, poorly fitted or top-dose-only effect; inactive = flat fitted curve, though single readings scatter. Potencies of inconclusive entries are left out as doubtful fits.
# Assay: qHTS for Inhibitors of human tyrosyl-DNA phosphodiesterase 1 (TDP1): qHTS in cells in presence of CPT; also: nearly all actives have a fitted effect of over 55% in size
# Settings: chicken DT40 Tdp1-/-;hTDP1 cells + 20 nM CPT, ATP luminescence, 48 h; activity change, negative = growth inhibition: at 46.2 µM (top of the series)
# Outline: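 Chicken DT40 Tdp1-/- cells complemented with human TDP1, 400 cells/well, exposed to compounds plus 20 nM camptothecin for at least 48 h at 37 C; viability read as ATP content by CellTiter-Glo luminescence.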
# % is scaled to controls: 0 for no effect and ±100 for the full control effect; potency is read from the fitted curve at half-maximal effect; tags tell the direction and shape of the fitted curve.
SMILES,Potency,"activity change, negative = growth inhibition"
O=C(NNc1ccc([N+](=O)[O-])cc1)C1CC1c1ccccc1 (configuration not stated),"inconclusive [inhibitor, single point]",–
NC(=S)N/N=C/c1ccc(-c2ccc(Cl)c(Cl)c2)o1,active: 23.1 µM,–
Nc1ccc(C(=O)NCC(=O)O)cc1,"inconclusive [inhibitor, single point]",–
Cc1ccsc1C(=O)N(C)CC(=O)N(CC(C)C)c1c(N)n(CC(C)C)c(=O)[nH]c1=O,inactive,–
CCOC(=O)N1CCc2c(sc3c2c(=O)n(CCc2ccccc2)c(=O)n3Cc2ccc(C)cc2C)C1,"inconclusive [inhibitor, single point]",–
COc1cc([N+](=O)[O-])ccc1N/C=C/C(=O)c1cccs1,"inconclusive [inhibitor, single point]",–
CCCCN(Cc1ccccc1)C1CCN(Cc2ccccc2)CC1,"inconclusive [inhibitor, single point]",–
c1ccc(CNc2ncnc3[nH]ncc23)cc1,active: 20.6 µM,–
Cc1cccc(C(=O)Nc2nc3c(s2)CCCC3)c1,"inconclusive [inhibitor, single point]",–
CCC(=O)N1CCc2cc(Br)cc(S(=O)(=O)N3CCCC(C(=O)NC(C)(C)C)C3)c21 (configuration not stated),"inconclusive [inhibitor, single point]",–
N=c1oc2ccc(Cl)cc2cc1C(=O)Nc1ccc(F)cc1,inactive,–
Cc1cc(C)c2c(N)c(C(=O)Nc3c(C)n(C)n(-c4ccccc4)c3=O)sc2n1,inactive,–
COC(=O)c1ccsc1NC(=O)C1COc2ccccc2O1 (configuration not stated),"inconclusive [inhibitor, single point]",–
CCOC(=O)c1ccc(S(=O)(=O)NNC(=O)Cc2csc(C)n2)cc1,inactive,–
Cc1ccc2[nH]c3nc(NN)nnc3c2c1,active: 23.1 µM,–
O=C(NCC1CCCO1)C(c1ccncc1)N(Cc1cccs1)C(=O)CN1C(=O)c2ccccc2S1(=O)=O (configuration not stated),inactive,–
CCC/C=C/c1ccc(CN2C(CC(C)C)C(=O)N(Cc3cn(CC4CCCCC4)nn3)CCS2(=O)=O)cc1 (configuration not stated),"inconclusive [inhibitor, single point]",–
COc1ccc(C)cc1NC(=O)CSc1nc2ccccc2nc1N1CCCC1,"inconclusive [inhibitor, single point]",–
CCOC(=O)N1CCN(S(=O)(=O)c2cc(Br)cc3c2N(C(C)=O)C(C)C3)CC1 (configuration not stated),inactive,–
O=C(NCCc1ccc(Cl)cc1)c1cc(-c2ccccn2)nc2ccccc12,"inconclusive [inhibitor, single point]",–
COc1c(C)cccc1C(=O)Nc1ccc(OCC(=O)N2CCOCC2)cc1C,inactive,–
CS(=O)(=O)N1CCC2(CCN(Cc3nccs3)CC2)CC1,inactive,–
COc1ccc(/C=N/NC(=O)c2ccoc2C)cc1COc1c(C)cccc1C,active: 11.6 µM,–
CSc1ccc(CCNC(=O)c2ccc3c(c2)nc2n3CCC(C)C2)cc1 (configuration not stated),active: 20.6 µM,–

SMILES,Potency,"activity change, negative = growth inhibition"
CCC(C)(C)NC(=O)Cc1ccc(OC)c(OC)c1,inactive,–
COc1ccc(N2CCN(c3ccc(S(=O)(=O)N(C(C)C)C(C)C)cn3)CC2)cc1,active: 4.61 µM,–
CCc1nc(Sc2nc(C)cc(C)n2)c2oc3ccccc3c2n1,"inconclusive [inhibitor, single point]",–
COc1ccc(Nc2nc(N)nc(CSc3nnc(C)s3)n2)cc1,inactive,–
Brc1cccc(CNc2nc3ccccc3n2CCN2CCOCC2)c1,"inconclusive [inhibitor, single point]",–
CCC1(CC)NC(=O)N(CC(=O)Nc2cccc3ccccc23)C1=O,inactive,–
Cc1cc(C2C(=O)NC(=O)C2=O)c(C)cc1Br (configuration not stated),inactive,–
O=C(Nc1cccc(Br)c1)c1cccc(OC(=S)N2CCOCC2)c1,"inconclusive [inhibitor, partial curve, poor fit]",–
CCCN1CCC(=O)N([C@H](CSc2ccc(C)cc2)c2ccccc2)CC1,active: 16.4 µM,–
CCc1ccc(Sc2cc(C(=O)NCCN3CCOCC3)c3ccccc3n2)cc1,"inconclusive [inhibitor, partial curve]",–
CCc1ccccc1NC(=O)N1CC(CC)Oc2ccc(Cl)cc21 (configuration not stated),active: 20.6 µM,–
C/C(=N\NC(=O)CNc1cccc(C(F)(F)F)c1)c1cccc(Br)c1,"inconclusive [inhibitor, single point]",–
CCOC(=O)COc1ccc2cc(C(=O)OCC)c(=O)oc2c1,inactive,–
Cc1ccccc1C(=O)OC1OC(=O)C(Cl)=C1N1CCOCC1 (configuration not stated),inactive,–
COc1cc2c(C(F)(F)F)c(-c3ccc(C#N)cc3)oc(=O)c2cc1OC,inactive,–
c1ccc(N/N=C(\Cc2nc3ccccc3[nH]2)c2ccccc2)cc1,"inconclusive [inhibitor, single point]",–
COc1cccc(NS(=O)(=O)c2ccc3[nH]cc(C(=O)NCCCOC(C)C)c(=O)c3c2)c1,"inconclusive [inhibitor, single point]",–
COC(=O)[C@@]1(Cc2ccc(F)cc2)[C@H]2c3cc(C(=O)N(C)C)n(CCc4c[nH]c5ccc(OC)cc45)c3C[C@H]2CN1C(=O)c1ccccc1,"inconclusive [inhibitor, single point]",–
CN(C)C(=O)c1ccc(-c2nc(NCc3cccnc3)c3ccccc3n2)cc1,"inconclusive [inhibitor, single point]",–
COc1ccc(CNC(=O)C2Cc3c(-c4ccccc4)ccnc3O2)cc1OC (configuration not stated),"inconclusive [inhibitor, partial curve, poor fit]",–
COc1ccc(S(=O)(=O)N2CCN(C3CCN(Cc4ccccc4)CC3)CC2)cc1,inactive,–
COc1ccc(/C=C(\C#N)C(=O)OCC(=O)Nc2ccc(-c3nc4ccc(C)cc4s3)cc2)cc1,–,inconclusive: -33.9% [inhibitor]
CCCC(C)NC(=O)c1ccc(OCc2ccc(Cl)cc2)c(OC)c1 (configuration not stated),"inconclusive [inhibitor, partial curve]",–
CCN(CC)S(=O)(=O)c1ccc(Cl)c(C(=O)Nc2cc(C)nn2-c2ccccc2)c1,active: 18.4 µM,–

SMILES,Potency,"activity change, negative = growth inhibition"
CCn1cc(CNCc2ccc(OCC(O)CN(C)Cc3ccccc3)cc2)cn1 (configuration not stated),"inconclusive [inhibitor, single point]",–
CC1CC(C)CN(CCCNC(=O)c2csc3c2CCCC3)C1 (configuration not stated),"inconclusive [inhibitor, single point]",–
COc1cccc(-c2ccc(CN3C(C)C(=O)N(Cc4cn(Cc5ccco5)nn4)CCS3(=O)=O)cc2)c1OC (configuration not stated),"inconclusive [inhibitor, partial curve, poor fit]",–
Cc1nc(N2CCOCC2)c2oc3ccccc3c2n1,"inconclusive [inhibitor, partial curve]",–
CCN1C(=O)[C@H]2[C@H]3CN=C(SCc4ccc(Cl)cc4)N3[C@@](Cc3ccccc3)(C(=O)OC)[C@H]2C1=O,"inconclusive [inhibitor, single point]",–
O=C(NCCCc1ccccc1)c1nn(-c2ccccc2F)nc1CO,"inconclusive [inhibitor, single point]",–
C#CCOCCOCCOCCNc1nc(N2CCN(C(=O)Cn3cc(CCCCN)nn3)CC2)nc(N2CCN(C(=O)[C@H](CCCCN)n3cc(CCC(=O)O)nn3)CC2)n1,–,inconclusive: -32.9% [inhibitor]
COc1cc([N+](=O)[O-])cc(/C=N/NC(=O)C(C)Nc2cccc3ccccc23)c1O (configuration not stated),active: 16.4 µM,–
COc1ccccc1N1CCN(S(=O)(=O)CCNC(=O)C2CCCCC2)CC1,"inconclusive [inhibitor, single point]",–
COc1ccc(NC(=O)c2ccc(CN3CCc4ccccc4C3)cc2)c(OC)c1,active: 23.1 µM,–
CCCc1cc(=O)oc2cc(C)cc(OC(C)C(=O)NCc3cccnc3)c12 (configuration not stated),inactive,–
O=C(CN1CCN(c2ccccn2)CC1)Nc1ccc([N+](=O)[O-])cc1C(=O)Nc1ccccc1F,active: 23.1 µM,–
Cc1cc(=O)[nH]c2c1cnn2Cc1ccccc1,"inconclusive [inhibitor, single point]",–
Cc1ccc(C(=O)NNC(=O)CSc2nnc3c(n2)[nH]c2ccc(F)cc23)cc1,"inconclusive [inhibitor, single point]",–
COc1cccc(CNC(=O)c2c(C)nn(-c3cccc(C)c3)c2-n2cccc2)c1,"inconclusive [inhibitor, single point]",–
CSc1ccccc1OCc1cc(C(=O)NC(C)c2cnn(C)c2)no1 (configuration not stated),–,inconclusive: -30.5% [inhibitor]
COc1ccc(S(=O)(=O)NCc2cccnc2)cc1Br,active: 4.61 µM,–
CCOC(=O)[C@@H]1[C@H]2COc3cc(OC)ccc3[C@H]2N2C(=O)N(c3cccc(F)c3)C(=O)[C@@]12C,"inconclusive [inhibitor, partial curve, poor fit]",–
CCC(CC)=NNc1ccc(S(N)(=O)=O)cc1[N+](=O)[O-],inactive,–
CCc1nnc(NC(=O)CSC(=S)N2CCOCC2)s1,inactive,–
COc1ccc(OC)c(S(=O)(=O)N2CCN(CC(O)COc3ccc(C#N)cc3)CC2)c1 (configuration not stated),"inconclusive [inhibitor, partial curve]",–
O=C(C1=C(O)C(=O)N(c2ncccn2)C1c1ccc(Cl)c(Cl)c1)c1ccco1 (configuration not stated),inactive,–
N#Cc1ccc(N/N=C/c2ccccc2)c([N+](=O)[O-])c1,inactive,–
CC(C)CCNC(=O)C(c1ccco1)N(Cc1ccc(F)cc1)C(=O)c1snc(C(N)=O)c1N (configuration not stated),"inconclusive [inhibitor, single point]",–
